These results are taken from patent US12065505B2, “Antibodies and antigen binding peptides for factor XIa inhibitors and uses thereof” (Bristol-Myers Squibb Company, priority 2021, dated 2024).

The IC50 is the concentration needed to halve the response being measured.

A short description of data set [1]: SPR (Biacore) Protein A mAb capture, Compound A injected. To be noted: 37° C., binding to Compound A, for rank ordering only. As for the experimental part:
The binding of hybridoma expressed 26D5 parent mAb (VH SEQ ID NO: 83 and VL SEQ ID NO: 98 in IgG1 f format)(P1-072224) and affinity matured mAbs to Compound A was examined by SPR (Biacore™) using a protein A capture method. The running buffer was 1×PBS (phosphate buffered saline, pH 7.4) with 0.05% Tween 20 and 2% DMSO. Binding experiments were carried out at 37° C. Protein A was coated on a CM5 S-series sensor chip (Cytiva, Cat. No. 29149603) at high density (2000+ RUs of protein A). The immobilization of protein A was carried out using the standard amine coupling immobilization procedure recommended by the manufacturer. The affinity matured antibody was then captured at a concentration of 2 ug/mL on the protein A surface at a flow rate of 3 uL/min for 2 minutes. Compound A was then injected over the captured antibody at concentrations spanning 100-3 nM (100, 50, 25, 12.5, 6.25, 3.125 nM) (FIG. 10) and for screening concentrations spanning 100-3 nM (100, 33, 11 nM) for 2 minutes at a flow rate of 100 uL/min and allowed to dissociate for at least 450 seconds. The chip surface was regenerated after each cycle with a 40 second pulse of 10 mM Glycine, pH 1.5. Background binding to the protein A surface alone was used to subtract non-specific binding. All experiments were run on a Biacore T200 surface plasmon resonance instrument using Biacore T200 Control software v. 2. Data analysis was performed using Biacore T200 evaluation software v 3.1. Apparent affinities were determined for rank ordering only since dissociation rates were too slow to be measured by Biacore. The names of the mAbs in Table 10 refer to mAbs having the H and L chain sequences of the corresponding Fabs in Table 3 in an IgG1f format.
A general note: SPR reads the build-up and loss of mass on a sensor chip optically.

The nature of data set [2]: Competitive TR-FRET assay modified for mAbs and Fabs (T0, T24, T48). It is filed as binding. To be noted: 37° C. How it is done:
A competitive TR-FRET (time-resolved fluorescence resonance energy transfer) assay was developed to rank-order the dissociation of α-Compound A mAbs from Compound A as equilibrium is reached at 37° C. The assay buffer was HBS-N (10 mM HEPES, 150 mM NaCl, pH 7.4; GE Healthcare), 0.1% (w/v) BSA (bovine serum albumin; Sigma), 2% DMSO (dimethyl sulfoxide; Sigma). All reagents were prepared in assay buffer and dispensed in equal volumes into white 384 microplates with final volume of 20 μl per well at the following final concentrations: 4 nM COMPOUND 5, the biotinylated analog of COMPOUND 2, a 100 0.1 nM 7-pt titration of human α-Compound A antibodies, 0.1 nM europium-labeled α-mouse IgG (LANCE Eu-W1024; PerkinElmer), 5 nM streptavidin-D2 (Cisbio), and 4 nM mAb 26D5 VH_A10G_Y33A_S53P_M89V_G95A; VK_W32N_H38Q (P1-075621, the second-round optimization parent 26D5-295-B08 formatted with mouse IgG Fc). COMPOUND 5 and α-Compound A antibody titrations were added first to the microplate, and were subjected to an initial incubation at 37° C., 1000 rpm, for one hour to facilitate antibody binding to the compound. After the initial incubation period, the europium α-mouse IgG, streptavidin-D2, and 26D5-mouse IgG (P1-075621) were added sequentially, then the plate was returned to 37° C., 1000 rpm incubation. Microplates were read using a Perkin Elmer EnVision plate reader, and the measured FRET signal was defined as [665 nm]/[620 nm]*10,000. Microplates were read at 30 minutes (T0) and after 24 hour (T24) intervals. For each antibody titration, the FRET signal was converted to % Inhibition relative to wells without α-Compound A antibody: (100 ((FRET at [antibody concentration]/FRET at 0 nM)*100). The % inhibition antibody titrations were plotted using TIBCO Spotfire (v.7), and the IC50 was determined using a 4-parameter model curve fit. The IC50s at each timepoint were reported, as well as the IC50 curve shift relative to T0. An IC50 curve shift indicated α-Compound A antibody dissociation from the biotinylated compound as the assay reached equilibrium, which subsequently allowed 26D5-mouse IgG1 (P1-075621) competitor to bind and generate the FRET signal detected in the assay.
The competitive TR-FRET assay defined above was also modified to assess optimized 26D5 antibody progeny that were reformatted as Fabs. The α-Compound A antibody and Fab titration series were extended to 250 0.244 nM (11-pt titration), and replicates of each concentration were collected in quadruplicate. The assay incubation was extended to include an additional 48 hr timepoint to ensure equilibrium was reached, and T48 hr IC50 and IC50 shifts were reported. The % inhibition titrations were plotted in Graphpad Prism (v.8) and fit to a 4-parameter model. All other experimental setup conditions were otherwise identical to the antibody TF-FRET assay.
Competitive FRET data collected for affinity-optimized α-Compound A 26D5 progeny comparing human antibodies and Fabs are shown in FIG. 14 and Table 13. Each panel represents a single α-Compound A sequence, with antibody (mAb, solid lines, circles) and Fab (dotted lines, triangles) formats overlaid. […] The names of the mAbs/Fabs in Table 13 refer to the corresponding sequences in Tables 1-3. All mAbs listed in Table 13 were in a human IgG1f/LC kappa format.
(TR-FRET usually uses a lanthanide donor and a delayed reading to cut background.)

Where two headings read alike, the source gives them in different places.

B1: 26D5-75616-348-F10-mAb: human IgG1f/kappa mAb; VH SEQ ID NO: 55, VL SEQ ID NO: 88; heavy chain SEQ ID NO: 201 (antibody)
heavy: EVQLVESGGGLIQPGGSLRLSCAASGFTVSSNAMSWVRQAPGKGLEWVSFIYPGGRTYYADSVKGRFTISRDNSKNTLYLQMNSLRAEDTAVYYCARAEFGLEDIWGQGTLVTVSSASTKGPSVFPLAPSSKSTSGGTAALGCLVKDYFPEPVTVSWNSGALTSGVHTFPAVLQSSGLYSLSSVVTVPSSSLGTQTYICNVNHKPSNTKVDKRV[no letters for human IgG1 Fc]
VL: DIQMTQSPSSVSASVGDRVTITCRASQGISSNLAWYQQKPGKAPKLLIYAASSLQSGVPSRFSGSGSGTDFTLTISSLQPEDFATYYCQQANSFPLTFGGGTKVEIK
Consider B1, for which the Kd in data set [1] (apparent affinity, read-out: KD) is less than 0.03 nM; in data set [1] (apparent), less than 5e-05 s⁻¹. Besides, the “Ka” value in data set [1] (apparent) came to 1.7e+06 M⁻¹ s⁻¹. Moreover, the IC50 worked out at 2.5 nM in data set [2] (24 hr, read-out: T24 hr IC50); 2.8 nM in data set [2] (48 hr, read-out: T48 hr IC50); 1.4 nM in data set [2] (read at 30 minutes (T0), competitor 26D5-mouse IgG (P1-075621), read-out: T0 IC50). For the same molecule, the “T24 hr IC50 shift” value in data set [2] (IC50 shift at 24 hr relative to T0) is reported as 1.1 nM. Besides, the “T48 hr IC50 shift” value in data set [2] (IC50 shift at 48 hr relative to T0) amounted to 1.4 nM.
